# This is one part of the list.
# B1: Tamarinin (protein)
# chain: CDDSARAGNIVVYWGQGGSDNSEGSLKEACKSGHYNMIVLQQLIVYDDGRDPDLNLGAHCSDCTKLEEQIKYCQNKDIKILLQIGQVVPTQEDVKDVTKNLSEYLLKNFFSGKSGPLGEVYLNGIDIASVPEGNNLKFDELVEALNDSSTERRIYLSASPLCVYPDYYLNKAIQTEKLDFLFVQFFYQNPCIYTEGNPENLFEAMKTWTKNVPESMIFMALPATPNLDGYIPPRVLNKEILPAVSEASNFAGVMIFDRYFDRFRKYSSKIK
# Experiments:
# Assay in all cases: glycan array binding signal (z-score within array); higher = stronger binding
# Details in all cases: glycan notation: IUPAC condensed, linker removed
# GalNAc(b1-3)Gal = target: GalNAc(b1-3)Gal
# In short: (§1)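 From the Consortium for Functional Glycomics database, 3228 arrays were curated, keeping only those whose protein sequence was available. Binding is given as a within-array Z-score averaged across arrays sharing a protein sequence and across linkers. Negative Z-scores can be read as non-binding.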
# [1] = target: GalNAc(b1-3)Gal(a1-4)Gal(b1-4)GlcNAc
# In short: as §1
# [2] = target: GalNAc(b1-3)Gal(a1-4)Gal(b1-4)GlcNAc(b1-3)Gal(b1-4)Glc
# In short: as §1
# [3] = target: GalNAc(b1-3)Gal(a1-6)Gal(b1-4)Glc
# In short: as §1
# GalNAc(b1-3)GalNAc = target: GalNAc(b1-3)GalNAc
# In short: as §1
# GalNAc(b1-3)GlcNAc = target: GalNAc(b1-3)GlcNAc
# In short: as §1
# GalNAc(b1-4)Gal(b1-4)Glc = target: GalNAc(b1-4)Gal(b1-4)Glc
# In short: as §1
# GalNAc(b1-4)GlcNAc = target: GalNAc(b1-4)GlcNAc
# In short: as §1
# [4] = target: GalNAc(b1-4)GlcNAc(b1-2)Man
# In short: as §1
# [5] = target: GalNAc(b1-4)GlcNAc(b1-2)Man(a1-3)[GalNAc(b1-4)GlcNAc(b1-2)Man(a1-6)]Man(b1-4)GlcNAc(b1-4)GlcNAc
# In short: as §1
# [6] = target: GalNAc(b1-4)GlcNAc(b1-3)GalNAc(b1-4)GlcNAc
# In short: as §1
# GalNAc(b1-4)GlcNAc6S = target: GalNAc(b1-4)GlcNAc6S
# In short: as §1
# GalNAc(b1-6)GalNAc = target: GalNAc(b1-6)GalNAc
# In short: as §1
# GalNAc3S(b1-4)GlcNAc = target: GalNAc3S(b1-4)GlcNAc
# In short: as §1
# GalNAc3S(b1-4)GlcNAc3S = target: GalNAc3S(b1-4)GlcNAc3S
# In short: as §1
# [7] = target: GalNAc3S(b1-4)[Fuc(a1-3)]GlcNAc
# In short: as §1
# GalNAc4S6S(b1-4)GlcNAc = target: GalNAc4S6S(b1-4)GlcNAc
# In short: as §1
# GalNAc6S(b1-4)GlcNAc = target: GalNAc6S(b1-4)GlcNAc
# In short: as §1
# Glc(a1-4)Glc = target: Glc(a1-4)Glc
# In short: as §1
# [8] = target: Glc(a1-4)Glc(a1-4)Glc(a1-4)Glc
# In short: as §1
# Glc(a1-6)Glc(a1-6)Glc = target: Glc(a1-6)Glc(a1-6)Glc
# In short: as §1
# [9] = target: Glc(a1-6)Glc(a1-6)Glc(a1-6)Glc
# In short: as §1
# Glc(b1-4)Glc = target: Glc(b1-4)Glc
# In short: as §1
# Glc(b1-6)Glc = target: Glc(b1-6)Glc
# In short: as §1
# GlcA(b1-3)Gal = target: GlcA(b1-3)Gal
# In short: as §1
# GlcA(b1-3)GlcNAc = target: GlcA(b1-3)GlcNAc
# In short: as §1
# GlcA(b1-6)Gal = target: GlcA(b1-6)Gal
# In short: as §1
# [10] = target: GlcA3S(b1-3)Gal(b1-4)GlcNAc(b1-2)Man
# In short: as §1
# [11] = target: GlcA3S(b1-3)Gal(b1-4)GlcNAc(b1-3)Gal(b1-4)Glc
# In short: as §1
# [12] = target: GlcNAc(a1-3)Gal(b1-4)GlcNAc
# In short: as §1
# [13] = target: GlcNAc(a1-4)Gal(b1-3)GlcNAc
# In short: as §1
# [14] = target: GlcNAc(a1-4)Gal(b1-4)GalNAc
# In short: as §1
# [15] = target: GlcNAc(a1-4)Gal(b1-4)GlcNAc
# In short: as §1
# [16] = target: GlcNAc(a1-4)Gal(b1-4)GlcNAc(b1-3)Gal(b1-4)Glc
# In short: as §1
# [17] = target: GlcNAc(a1-4)Gal(b1-4)GlcNAc(b1-3)Gal(b1-4)GlcNAc
# In short: as §1
# [18] = target: GlcNAc(a1-4)Gal(b1-4)GlcNAc(b1-3)Gal(b1-4)GlcNAc(b1-3)Gal(b1-4)GlcNAc
# In short: as §1
# [19] = target: GlcNAc(a1-4)Gal(b1-4)GlcNAc(b1-3)Gal(b1-4)[Fuc(a1-3)]GlcNAc(b1-3)Gal(b1-4)[Fuc(a1-3)]GlcNAc
# In short: as §1
# [20] = target: GlcNAc(a1-6)Gal(b1-4)GlcNAc
# In short: as §1
binder,measurement,setting,value
B1,glycan array binding signal (z-score),GalNAc(b1-3)Gal,-0.225
same,glycan array binding signal (z-score),[1],-0.378
same,glycan array binding signal (z-score),[2],0.245
same,glycan array binding signal (z-score),[3],-0.326
same,glycan array binding signal (z-score),GalNAc(b1-3)GalNAc,-0.342
same,glycan array binding signal (z-score),GalNAc(b1-3)GlcNAc,-0.214
same,glycan array binding signal (z-score),GalNAc(b1-4)Gal(b1-4)Glc,1.94
same,glycan array binding signal (z-score),GalNAc(b1-4)GlcNAc,0.335
same,glycan array binding signal (z-score),[4],-0.349
same,glycan array binding signal (z-score),[5],-0.233
same,glycan array binding signal (z-score),[6],1.9
same,glycan array binding signal (z-score),GalNAc(b1-4)GlcNAc6S,0.687
same,glycan array binding signal (z-score),GalNAc(b1-6)GalNAc,-0.131
same,glycan array binding signal (z-score),GalNAc3S(b1-4)GlcNAc,2.59
same,glycan array binding signal (z-score),GalNAc3S(b1-4)GlcNAc3S,-0.245
same,glycan array binding signal (z-score),[7],-0.228
same,glycan array binding signal (z-score),GalNAc4S6S(b1-4)GlcNAc,-0.001
same,glycan array binding signal (z-score),GalNAc6S(b1-4)GlcNAc,2.4
same,glycan array binding signal (z-score),Glc(a1-4)Glc,-0.187
same,glycan array binding signal (z-score),[8],-0.232
same,glycan array binding signal (z-score),Glc(a1-6)Glc(a1-6)Glc,-0.034
same,glycan array binding signal (z-score),[9],0.415
same,glycan array binding signal (z-score),Glc(b1-4)Glc,-0.043
same,glycan array binding signal (z-score),Glc(b1-6)Glc,-0.074
same,glycan array binding signal (z-score),GlcA(b1-3)Gal,-0.029
same,glycan array binding signal (z-score),GlcA(b1-3)GlcNAc,0.701
same,glycan array binding signal (z-score),GlcA(b1-6)Gal,0.165
same,glycan array binding signal (z-score),[10],-0.362
same,glycan array binding signal (z-score),[11],1.34
same,glycan array binding signal (z-score),[12],-0.318
same,glycan array binding signal (z-score),[13],-0.351
same,glycan array binding signal (z-score),[14],-0.193
same,glycan array binding signal (z-score),[15],-0.431
same,glycan array binding signal (z-score),[16],-0.182
same,glycan array binding signal (z-score),[17],-0.386
same,glycan array binding signal (z-score),[18],-0.44
same,glycan array binding signal (z-score),[19],0.824
same,glycan array binding signal (z-score),[20],0.193

# Source: the supplement of paper PMC8728848
